{"source": "the supplement of paper PMC8728848", "experiment_in_all_cases": "glycan array binding signal (z-score within array); higher = stronger binding", "conditions_in_all_cases": "glycan notation: IUPAC condensed, linker removed", "key": {"[1]": {"target": "Fuc(a1-2)Gal", "in_short": "(§1)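 From the Consortium for Functional Glycomics database, 3228 arrays were curated, keeping only those whose protein sequence was available. Binding is given as a within-array Z-score averaged across arrays sharing a protein sequence and across linkers. Negative Z-scores can be read as non-binding.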"}, "[2]": {"target": "Fuc(a1-2)Gal(b1-3)GalNAc", "in_short": "as §1"}, "[3]": {"target": "Fuc(a1-2)Gal(b1-3)GalNAc(a1-3)[Fuc(a1-2)]Gal(b1-4)Glc", "in_short": "as §1"}, "[4]": {"target": "Fuc(a1-2)Gal(b1-3)GalNAc(a1-3)[Fuc(a1-2)]Gal(b1-4)GlcNAc", "in_short": "as §1"}, "[5]": {"target": "Fuc(a1-2)Gal(b1-3)GalNAc(b1-3)Gal", "in_short": "as §1"}, "[6]": {"target": "Fuc(a1-2)Gal(b1-3)GalNAc(b1-3)Gal(a1-4)Gal(b1-4)Glc", "in_short": "as §1"}, "[7]": {"target": "Fuc(a1-2)Gal(b1-3)GalNAc(b1-4)[Neu5Ac(a2-3)]Gal(b1-4)Glc", "in_short": "as §1"}, "[8]": {"target": "Fuc(a1-2)Gal(b1-3)GlcNAc", "in_short": "as §1"}, "[9]": {"target": "Fuc(a1-2)Gal(b1-3)GlcNAc(b1-2)Man(a1-3)[Fuc(a1-2)Gal(b1-3)GlcNAc(b1-2)Man(a1-6)]Man(b1-4)GlcNAc(b1-4)GlcNAc", "in_short": "as §1"}, "[10]": {"target": "Fuc(a1-2)Gal(b1-3)GlcNAc(b1-2)Man(a1-3)[Fuc(a1-2)Gal(b1-3)GlcNAc(b1-2)Man(a1-6)]Man(b1-4)GlcNAc(b1-4)[Fuc(a1-6)]GlcNAc", "in_short": "as §1"}, "[11]": {"target": "Fuc(a1-2)Gal(b1-3)GlcNAc(b1-3)Gal(b1-4)Glc", "in_short": "as §1"}, "[12]": {"target": "Fuc(a1-2)Gal(b1-3)GlcNAc(b1-3)GalNAc", "in_short": "as §1"}, "[13]": {"target": "Fuc(a1-2)Gal(b1-3)GlcNAc(b1-3)[Fuc(a1-2)Gal(b1-3)GlcNAc(b1-6)]GalNAc", "in_short": "as §1"}, "[14]": {"target": "Fuc(a1-2)Gal(b1-3)GlcNAc(b1-3)[Gal(b1-4)GlcNAc(b1-6)]Gal(b1-4)Glc", "in_short": "as §1"}, "[15]": {"target": "Fuc(a1-2)Gal(b1-3)GlcNAc(b1-3)[Neu5Ac(a2-6)Gal(b1-4)GlcNAc(b1-6)]Gal(b1-4)Glc", "in_short": "as §1"}, "[16]": {"target": "Fuc(a1-2)Gal(b1-3)GlcNAc6S", "in_short": "as §1"}, "[17]": {"target": "Fuc(a1-2)Gal(b1-3)[Fuc(a1-4)]GlcNAc", "in_short": "as §1"}, "[18]": {"target": "Fuc(a1-2)Gal(b1-3)[Fuc(a1-4)]GlcNAc(b1-2)Man(a1-3)[Fuc(a1-2)Gal(b1-3)[Fuc(a1-4)]GlcNAc(b1-2)Man(a1-3)]Man(b1-4)GlcNAc(b1-4)GlcNAc", "in_short": "as §1"}, "[19]": {"target": "Fuc(a1-2)Gal(b1-3)[Fuc(a1-4)]GlcNAc(b1-2)Man(a1-3)[Fuc(a1-2)Gal(b1-3)[Fuc(a1-4)]GlcNAc(b1-2)Man(a1-6)]Man(b1-4)GlcNAc(b1-4)[Fuc(a1-6)]GlcNAc(b1-4)[Fuc(a1-6)]GlcNAc", "in_short": "as §1"}, "[20]": {"target": "Fuc(a1-2)Gal(b1-3)[Fuc(a1-4)]GlcNAc(b1-3)[Fuc(a1-3)[Gal(b1-4)]GlcNAc(b1-6)]Gal(b1-4)Glc", "in_short": "as §1"}, "[21]": {"target": "Fuc(a1-2)Gal(b1-3)[Fuc(a1-4)]GlcNAc(b1-3)[Gal(b1-4)GlcNAc(b1-6)]Gal(b1-4)Glc", "in_short": "as §1"}, "[22]": {"target": "Fuc(a1-2)Gal(b1-4)Fuc(a1-3)]GlcNAc(b1-2)Man(a1-3)[Fuc(a1-2)Gal(b1-4)[Fuc(a1-3)]GlcNAc(b1-2)Man(a1-6)]Man(b1-4)GlcNAc(b1-4)GlcNAc", "in_short": "as §1"}, "[23]": {"target": "Fuc(a1-2)Gal(b1-4)Glc", "in_short": "as §1"}, "[24]": {"target": "Fuc(a1-2)Gal(b1-4)Glc6S", "in_short": "as §1"}, "[25]": {"target": "Fuc(a1-2)Gal(b1-4)GlcNAc", "in_short": "as §1"}, "[26]": {"target": "Fuc(a1-2)Gal(b1-4)GlcNAc(b1-2)Man", "in_short": "as §1"}, "[27]": {"target": "Fuc(a1-2)Gal(b1-4)GlcNAc(b1-2)Man(a1-3)[Fuc(a1-2)Gal(b1-4)GlcNAc(b1-2)Man(a1-6)]Man(b1-4)GlcNAc(b1-4)GlcNAc", "in_short": "as §1"}, "[28]": {"target": "Fuc(a1-2)Gal(b1-4)GlcNAc(b1-2)Man(a1-3)[Fuc(a1-2)Gal(b1-4)GlcNAc(b1-2)Man(a1-6)]Man(b1-4)GlcNAc(b1-4)[Fuc(a1-6)]GlcNAc", "in_short": "as §1"}, "[29]": {"target": "Fuc(a1-2)Gal(b1-4)GlcNAc(b1-2)[Fuc(a1-2)Gal(b1-4)GlcNAc(b1-4)]Man(a1-3)[Fuc(a1-2)Gal(b1-4)GlcNAc(b1-2)Man(a1-6)]Man(b1-4)GlcNAc(b1-4)GlcNAc", "in_short": "as §1"}, "[30]": {"target": "Fuc(a1-2)Gal(b1-4)GlcNAc(b1-3)Gal(b1-4)GlcNAc", "in_short": "as §1"}}, "note": "The other results are listed elsewhere or left out.", "data": [{"binder": "Dectin2 (Homo sapiens), Q6EIG7 (protein) MMQEQQPQSTEKRGWLSLRLWSVAGISIALLSACFIVSCVVTYHFTYGETGKRLSELHSYHSSLTCFSEGTKVPAWGCCPASWKSFGSSCYFISSEEKVWSKSEQNCVEMGAHLVVFNTEAEQNFIVQQLNESFSYFLGLSDPQGNNNWQWIDKTPYEKNVRFWHLGEPNHSAEQCASIVFWKPTGWGWNDVICETRRNSICEMNKIYL", "values": [{"measurement": "glycan array binding signal (z-score)", "setting": "[1]", "value": -0.122}, {"measurement": "glycan array binding signal (z-score)", "setting": "[2]", "value": -0.152}, {"measurement": "glycan array binding signal (z-score)", "setting": "[3]", "value": -0.162}, {"measurement": "glycan array binding signal (z-score)", "setting": "[4]", "value": -0.189}, {"measurement": "glycan array binding signal (z-score)", "setting": "[5]", "value": -0.163}, {"measurement": "glycan array binding signal (z-score)", "setting": "[6]", "value": -0.13}, {"measurement": "glycan array binding signal (z-score)", "setting": "[7]", "value": -0.158}, {"measurement": "glycan array binding signal (z-score)", "setting": "[8]", "value": -0.127}, {"measurement": "glycan array binding signal (z-score)", "setting": "[9]", "value": 0.261}, {"measurement": "glycan array binding signal (z-score)", "setting": "[10]", "value": -0.103}, {"measurement": "glycan array binding signal (z-score)", "setting": "[11]", "value": -0.145}, {"measurement": "glycan array binding signal (z-score)", "setting": "[12]", "value": -0.184}, {"measurement": "glycan array binding signal (z-score)", "setting": "[13]", "value": -0.095}, {"measurement": "glycan array binding signal (z-score)", "setting": "[14]", "value": -0.199}, {"measurement": "glycan array binding signal (z-score)", "setting": "[15]", "value": -0.182}, {"measurement": "glycan array binding signal (z-score)", "setting": "[16]", "value": -0.128}, {"measurement": "glycan array binding signal (z-score)", "setting": "[17]", "value": -0.111}, {"measurement": "glycan array binding signal (z-score)", "setting": "[18]", "value": 0.104}, {"measurement": "glycan array binding signal (z-score)", "setting": "[19]", "value": 0.006}, {"measurement": "glycan array binding signal (z-score)", "setting": "[20]", "value": -0.181}, {"measurement": "glycan array binding signal (z-score)", "setting": "[21]", "value": -0.146}, {"measurement": "glycan array binding signal (z-score)", "setting": "[22]", "value": 0.975}, {"measurement": "glycan array binding signal (z-score)", "setting": "[23]", "value": -0.165}, {"measurement": "glycan array binding signal (z-score)", "setting": "[24]", "value": 0.189}, {"measurement": "glycan array binding signal (z-score)", "setting": "[25]", "value": -0.158}, {"measurement": "glycan array binding signal (z-score)", "setting": "[26]", "value": -0.145}, {"measurement": "glycan array binding signal (z-score)", "setting": "[27]", "value": 0.093}, {"measurement": "glycan array binding signal (z-score)", "setting": "[28]", "value": 0.091}, {"measurement": "glycan array binding signal (z-score)", "setting": "[29]", "value": 0.039}, {"measurement": "glycan array binding signal (z-score)", "setting": "[30]", "value": -0.168}]}]}
